# Laboratory results published in PubChem BioAssay AID588855 (National Center for Advancing Translational Sciences (NCATS), 2011).
# About 5,000 (1.2%) of roughly 410,000 compounds were called active. Inconclusive results, whose numbers are uncertain, are shown with a selection of clear calls. Calls follow the shape of the dose curve; as a rule, active = well fitted inhibition curve with a large enough effect; inconclusive = small, poorly fitted or top-dose-only effect; inactive = no such curve, though single readings can be large or run the other way. Where the call is inconclusive, the potency comes from a doubtful curve fit.
# Experiment: qHTS for Inhibitors of TGF-b; also: nearly all actives have a fitted effect of over 65% in size
# Conditions: HepG2 CAGA-GFP TGF-b/SMAD3 reporter, GFP fluorescence, 18 h, TGF-beta stimulated, 500 pg/mL final; series mostly up to 46.1 µM
# How it was run: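 Read-out: total well GFP (ex488/em500-530) summed from mean per-cell fluorescence. Cells: HEPG2 CAGA-GFP, 1% FBS DMEM, 18 h at 37 degrees C with 500 pg/mL final TGF-beta. Unstimulated wells served as the full-inhibition control; stimulated DMSO wells = 0%.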
# Potency is read from the fitted curve at half-maximal effect; tags tell the direction and shape of the fitted curve.
row,Compound,Potency
1,COc1ccc(C(=O)N2N=C(c3cccc(OC)c3)CC2(O)C(F)(F)F)cc1 (centres undefined),"inconclusive: 3.98 µM [inhibitor, full curve]"
2,COc1ccccc1N1CCN(C2CC(=O)N(c3ccc(Cl)cc3)C2=O)CC1 (centres undefined),"inconclusive: 35.5 µM [inhibitor, partial curve, poor fit]"
3,CCOC(=O)c1ccc(NC(=O)Cn2c(=O)n(-c3ccc(C)cc3)c(=O)c3c2cnn3C)cc1,inactive
4,O=C(c1ccccc1)c1cccc(NC(=O)c2ccc(Br)o2)c1,"inconclusive: 20 µM [inhibitor, single point]"
5,Cc1nn(Cc2ccc(F)cc2)c(C)c1NC(=O)c1noc2c1CCCCC2,"inconclusive: 35.5 µM [inhibitor, partial curve, poor fit]"
6,O=C(NCCc1cccs1)C1CC(c2cccc([N+](=O)[O-])c2)=NO1 (centres undefined),inactive
7,CCCCCC(=O)N1C[C@@H](O)[C@H](n2cc(-c3ccc(F)cc3)nn2)C[C@@H]1c1ccc(Cl)cc1,"inconclusive: 22.4 µM [inhibitor, single point]"
8,CC(C)CNC(=S)Nc1ccccc1F,inactive
9,O=C(Cn1cc(C(=O)c2ccco2)c2ccccc21)Nc1ccccc1F,inactive
10,Cc1c(Cl)cccc1NC(=O)C1CCN(S(C)(=O)=O)CC1,"inconclusive: 7.08 µM [inhibitor, partial curve, poor fit]"
11,O=C(Nc1ccccc1F)NC1CCCc2ccccc21 (centres undefined),inactive
12,COc1ccc(-c2coc3cc4oc(=O)cc(-c5ccccc5)c4cc23)cc1F,"inconclusive: 6.31 µM [inhibitor, single point]"
13,CCOc1cc(C)c(S(=O)(=O)N2CCCCC2)cc1C,"inconclusive: 35.5 µM [inhibitor, single point]"
14,Cn1c(O)c(N=NC(=O)Cc2c[nH]c3ccccc23)c2ccccc21,"inconclusive: 6.31 µM [inhibitor, partial curve, poor fit]"
15,COc1ccc(C2/C=C\CN(C(=O)NC(C)C)CC(=O)N2Cc2ccc(F)cc2)cc1 (centres undefined),"inconclusive: 35.5 µM [inhibitor, single point]"
16,CCOC(=O)c1cccc(NC(=O)c2cc3sccc3n2Cc2ccc(Cl)cc2)c1,"inconclusive: 25.1 µM [inhibitor, single point]"
17,OCCNc1nc2ccccc2n1CCN1CCCCC1,inactive
18,NC(=O)c1cc(Cl)ccc1OCC(=O)NC1CC1,inactive
19,O=S(=O)(Nc1ccc(Cl)cn1)c1cnc(Cl)c(Br)c1,"inconclusive: 22.4 µM [inhibitor, single point]"
20,CNc1oc(-c2ccccc2Cl)nc1C#N,inactive
21,O=C(NCCc1ccc(Cl)cc1)Nc1cccc(Cl)c1,"inconclusive: 35.5 µM [inhibitor, single point]"
22,COC(=O)c1ccc(C(=O)OC)c(NC(=O)C2CC(=O)N(C3CCCC3)C2)c1 (centres undefined),inactive
23,CCN(C(=O)COC(=O)c1cccnc1SC)c1c(N)n(Cc2ccccc2)c(=O)[nH]c1=O,inactive

row,Compound,Potency
1,COc1cc(C(C)=O)ccc1OCC(=O)Nc1ccc(C)c(S(=O)(=O)N2CCCCCC2)c1,"inconclusive: 11.2 µM [inhibitor, partial curve, poor fit]"
2,Cc1csc(NC(=O)c2cc3c(s2)CCCC3)n1,"inconclusive: 35.5 µM [inhibitor, single point]"
3,CC(=O)N1C(C)c2ccccc2C(C)(C)CC12CCCCC2 (centres undefined),"inconclusive: 35.5 µM [inhibitor, single point]"
4,Oc1ccc(/C=N/Nc2ccnc3cc(Cl)ccc23)cc1O,"inconclusive: 2.24 µM [inhibitor, full curve, poor fit]"
5,CCOc1ccc(/C=N/OCC(=O)NCc2ccc3c(c2)OCO3)cc1OC,"inconclusive: 0.708 µM [inhibitor, full curve]"
6,COc1ccc(-c2cc(C(=O)N3CCCC(C(F)(F)F)C3)c3ccccc3n2)cc1OC (centres undefined),inactive
7,Cc1ccc(OCC(=O)Nc2ccccc2-c2ccccc2NC(=O)COc2ccc(C)cc2)cc1,"inconclusive: 5.62 µM [inhibitor, single point]"
8,O=C(NCc1nnc2c(C(F)(F)F)cc(Cl)cn12)c1ccco1,inactive
9,Cc1cc(Nc2ccc(C)c(Cl)c2)n2nc(Cc3ccccc3)nc2n1,"inconclusive: 14.1 µM [inhibitor, partial curve, poor fit]"
10,O=C(NNC(=S)NC(=O)c1ccccc1)c1ccc(O)cc1,inactive
11,OCCNCc1c(OCc2ccc(Cl)cc2)ccc2ccccc12,"inconclusive: 35.5 µM [inhibitor, single point]"
12,O=S1(=O)CC(N2CCC(Cc3ccccc3)CC2)CN1CCc1ccccc1 (centres undefined),"inconclusive: 15.8 µM [inhibitor, single point]"
13,CN(C)CCN(C(=O)C1CCN(S(=O)(=O)c2cccs2)CC1)c1nc2c(F)cccc2s1,"inconclusive: 35.5 µM [inhibitor, single point]"
14,CCC(CO)NC(=O)C(=O)Nc1c2c(nn1-c1ccc(F)cc1)CSC2 (centres undefined),inactive
15,COc1cccc(-c2nnc3sc(C4CCCCC4)nn23)c1,"inconclusive: 22.4 µM [inhibitor, partial curve, poor fit]"
16,O=C(COC(=O)C1CCCN1C(=O)c1cccs1)Nc1ccc2c(c1)OCO2 (centres undefined),"inconclusive: 6.31 µM [inhibitor, single point]"
17,COc1cc(C(=O)N2CCCCC2c2cc(C(=O)NC(C)C)no2)cc(OC)c1C (centres undefined),inactive
18,O=C(NCCO)c1ccc2[nH]c3c(c2c1)CCCC3,inactive
19,CC(C)(C)c1ccc(S(=O)(=O)NCc2ccc3c(c2)CCN3C(=O)c2ccccc2)cc1,"inconclusive: 35.5 µM [inhibitor, single point]"
20,Cn1c(SCC(=O)N/N=C/c2ccc([N+](=O)[O-])s2)nnc1-c1ccc(Cl)cc1,"inconclusive: 35.5 µM [inhibitor, single point]"
21,O=C(c1ccc(Cl)cc1)N1CCC(c2ccncc2)CC1,inactive
22,COc1cc(-c2noc(-c3ccc(N4CCN(C)CC4)c([N+](=O)[O-])c3)n2)cc(OC)c1OC,inactive
23,OCCN1CCN(c2nc(-c3ccccc3O)nc3ccccc23)CC1,"inconclusive: 12.6 µM [inhibitor, partial curve, poor fit]"

row,Compound,Potency
1,O=C1c2cccnc2C(=O)N1Cc1ccccc1,inactive
2,Cc1onc(C(=O)N2C(C)CCCC2C)c1[N+](=O)[O-] (centres undefined),"inconclusive: 6.31 µM [inhibitor, single point]"
3,O=C(NNC(=O)c1ccccc1-n1cccc1)c1cccnc1,inactive
4,COc1cc(OC)c(NC(=O)C2=C(C)C(=O)OC23CCCCCC3)cc1Cl,"inconclusive: 25.1 µM [inhibitor, single point]"
5,Cc1ccc(C)c(S(=O)(=O)N2CCN(CC(=O)Nc3ccc4c(c3)CCC4)CC2)c1,"inconclusive: 1.41 µM [inhibitor, partial curve, poor fit]"
6,CN(Cc1c(F)cccc1Cl)C(=O)c1cccc(S(=O)(=O)N2CCN(Cc3ccccc3)CC2)c1,"inconclusive: 20 µM [inhibitor, partial curve, poor fit]"
7,OC[C@@H]1CN(Cc2ccc(-c3ccccc3)cc2)C[C@H](n2cnc3c(NCc4ccc(F)cc4)ncnc32)O1,"inconclusive: 22.4 µM [inhibitor, single point]"
8,CCOC(=O)c1ccc(N2C(=O)CC(SCC(=O)Nc3ccc(S(N)(=O)=O)cc3)C2=O)cc1 (centres undefined),inactive
9,COC(=O)c1ccsc1NC(=O)CS(=O)(=O)c1ccccc1,"inconclusive: 22.4 µM [inhibitor, partial curve, poor fit]"
10,O=C(CCCN1C(=O)/C(=C/c2ccccc2Cl)SC1=S)NNC(=O)c1ccncc1,inactive
11,CN1CCc2c(sc3c2C(=O)NC(c2ccccc2)N3)C1 (centres undefined),inactive
12,CC(=O)c1c(N2CCN(Cc3ccccc3)CC2)nc(=S)n(Cc2ccccc2)c1C,"inconclusive: 12.6 µM [inhibitor, partial curve, poor fit]"
13,CCc1ccc(C(C)NC(=S)NCc2ccc(F)cc2)cc1 (centres undefined),"inconclusive: 11.2 µM [inhibitor, single point]"
14,CCOC(=O)C1=C(O)/C(=C/c2cn(CC(=O)N3CCCC3)c3ccccc23)SC1=Nc1ccccc1,inactive
15,O=S(=O)(c1ccc2nc(SCc3ccc(Cl)cc3)[nH]c2c1)N1CCOCC1,active: 10 µM
16,COc1ccc(OC)c(C(c2nnnn2C2CCCC2)N2CCc3ccccc3C2)c1 (centres undefined),"inconclusive: 7.94 µM [inhibitor, partial curve, poor fit]"
17,COc1ccc(S(=O)(=O)N2CCCCC2)cc1Br,"inconclusive: 35.5 µM [inhibitor, single point]"
18,O=C(NCc1ccc(F)cc1)c1ccc(CS(=O)(=O)c2ccc(Br)cc2)o1,"inconclusive: 35.5 µM [inhibitor, single point]"
19,CC(C)CC(=O)Nc1cccc(-c2csc(-c3ccccc3)n2)c1,"inconclusive: 35.5 µM [inhibitor, single point]"
20,Cc1c(NC(=O)CSc2nncc3ccccc23)c(=O)n(-c2ccccc2)n1C,"inconclusive: 14.1 µM [inhibitor, single point]"
21,CCOc1ccc(-c2nc(CS(=O)(=O)CC(=O)NCc3ccc(F)cc3)c(C)o2)cc1,"inconclusive: 15.8 µM [inhibitor, single point]"
22,N/C(=N\N=Cc1ccc2c(c1)OCO2)NN=Cc1ccc2c(c1)OCO2,"inconclusive: 8.91 µM [inhibitor, partial curve]"
23,CCN1CCN(Cc2ccc(NC(=O)c3ccc(C)c(NC(=O)c4cccc(-c5cn[nH]c(=O)c5)c4)c3)cc2C(F)(F)F)CC1,inactive
